Test results taken from patent publication US20200347115A1 (Hoffmann-La Roche, published 2020).
Values belong to the binder of their own block, whether it stands above or below them.

Experiments:
human 4-1BB (CD137) [1] = molecular target: T1, human 4-1BB (CD137) (human, UniProt Q07011 24-255); assay: flow cytometry on anti-CD3/anti-CD28 pre-activated human PBMCs
T1 construct: whole, on cells; also called hu4-1BB

human 4-1BB (CD137) [2] = molecular target: T1, human 4-1BB (CD137); assay: flow cytometry on activated CD4+ T cells, FIG. 5A

binding result (human 4-1BB (CD137) [1]): binds
B1: CD19 (2B11)-4-1BB ligand (71-248) contorsbody P1AA0776 (Fc fusion)
chain: REGPELSPDDPAGLLDLRQGMFAQLVAQNVLLIDGPLSWYSDPGLAGVSLTGGLSYKEDTKELVVAKAGVYYVFFQLELRRVVAGEGSGSVSLALHLQPLRSAAGAAALALTVDLPPASSEARNSAFGFQGRLLHLSAGQRLGVHLHTEARARHAWQLTQGATVLGLFRVTPEIPAGLGGGGSGGGGSDKTHTCPPCPAPEAAGGPSVFLFPPKPKDTLMISRTPEVTCVVVDVSHEDPEVKFNWYVDGVEVHNAKTKPREEQYNSTYRVVSVLTVLHQDWLNGKEYKCKVSNKALGAPIEKTISKAKGQPREPQVCTLPPSRDELTKNQVSLSCAVKGFYPSDIAVEWESNGQPENNYKTTPPVLDSDGSFFLVSKLTVDKSRWQQGNVFSCSVMHEALHNHYTQKSLSLSPGGGGGSGGGGSREGPELSPDDPAGLLDLRQGMFAQLVAQNVLLIDGPLSWYSDPGLAGVSLTGGLSYKEDTKELVVAKAGVYYVFFQLELRRVVAGEGSGSVSLALHLQPLRSAAGAAALALTVDLPPASSEARNSAFGFQGRLLHLSAGQRLGVHLHTEARARHAWQLTQGATVLGLFRVTPEIPAGLGGGGSGGGGSREGPELSPDDPAGLLDLRQGMFAQLVAQNVLLIDGPLSWYSDPGLAGVSLTGGLSYKEDTKELVVAKAGVYYVFFQLELRRVVAGEGSGSVSLALHLQPLRSAAGAAALALTVDLPPASSEARNSAFGFQGRLLHLSAGQRLGVHLHTEARARHAWQLTQGATVLGLFRVTPEIPAGL
heavy: QVQLVQSGAEVKKPGASVKVSCKASGYTFTDYIMHWVRQAPGQGLEWMGYINPYNDGSKYTEKFQGRVTMTSDTSISTAYMELSRLRSDDTAVYYCARGTYYYGPQLFDYWGQGTTVTVSSASTKGPSVFPLAPSSKSTSGGTAALGCLVKDYFPEPVTVSWNSGALTSGVHTFPAVLQSSGLYSLSSVVTVPSSSLGTQTYICNVNHKPSNTKVDKKV[omitted - human IgG1 Fc with changes]
light: DIVMTQTPLSLSVTPGQPASISCKSSQSLETSTGTTYLNWYLQKPGQSPQLLIYRVSKRFSGVPDRFSGSGSGTDFTLKISRVEAEDVGVYYCLQLLEDPYTFGQGTKLEIKRTVAAPSVFIFPPSDEQLKSGTASVVCLLNNFYPREAKVQWKVDNALQSGNSQESVTEQDSKDSTYSLSSTLTLSKADYEKHKVYACEVTHQGLSSPVTKSFNRGEC
notes: Human IgG1 Fc knob-into-hole with P329G, L234A, L235A; also called P1AA10776; CD19-4-1BBL contorsbody P1AA0776

binding result (human 4-1BB (CD137) [1]): binds
B2: CD19(2B11)-4-1BBL (Charged variant), Construct 4.4 of WO 2016/075278 (Fc fusion)
chain 1: REGPELSPDDPAGLLDLRQGMFAQLVAQNVLLIDGPLSWYSDPGLAGVSLTGGLSYKEDTKELVVAKAGVYYVFFQLELRRVVAGEGSGSVSLALHLQPLRSAAGAAALALTVDLPPASSEARNSAFGFQGRLLHLSAGQRLGVHLHTEARARHAWQLTQGATVLGLFRVTPEIPAGLGGGGSGGGGSREGPELSPDDPAGLLDLRQGMFAQLVAQNVLLIDGPLSWYSDPGLAGVSLTGGLSYKEDTKELVVAKAGVYYVFFQLELRRVVAGEGSGSVSLALHLQPLRSAAGAAALALTVDLPPASSEARNSAFGFQGRLLHLSAGQRLGVHLHTEARARHAWQLTQGATVLGLFRVTPEIPAGLGGGGSGGGGSRTVAAPSVFIFPPSDRKLKSGTASVVCLLNNFYPREAKVQWKVDNALQSGNSQESVTEQDSKDSTYSLSSTLTLSKADYEKHKVYACEVTHQGLSSPVTKSFNRGE[omitted - human IgG1 Fc with changes]
chain 2: REGPELSPDDPAGLLDLRQGMFAQLVAQNVLLIDGPLSWYSDPGLAGVSLTGGLSYKEDTKELVVAKAGVYYVFFQLELRRVVAGEGSGSVSLALHLQPLRSAAGAAALALTVDLPPASSEARNSAFGFQGRLLHLSAGQRLGVHLHTEARARHAWQLTQGATVLGLFRVTPEIPAGLGGGGSGGGGSASTKGPSVFPLAPSSKSTSGGTAALGCLVEDYFPEPVTVSWNSGALTSGVHTFPAVLQSSGLYSLSSVVTVPSSSLGTQTYICNVNHKPSNTKVDEKVEPKSC
heavy: QVQLVQSGAEVKKPGASVKVSCKASGYTFTDYIMHWVRQAPGQGLEWMGYINPYNDGSKYTEKFQGRVTMTSDTSISTAYMELSRLRSDDTAVYYCARGTYYYGPQLFDYWGQGTTVTVSSASTKGPSVFPLAPSSKSTSGGTAALGCLVKDYFPEPVTVSWNSGALTSGVHTFPAVLQSSGLYSLSSVVTVPSSSLGTQTYICNVNHKPSNTKVDKKVEPKSCDKTHTCPPCPAPEAAGGPSVFLFPPKPKDTLMISRTPEVTCVVVDVSHEDPEVKFNWYVDGVEVHNAKTKPREEQYNSTYRVVSVLTVLHQDWLNGKEYKCKVSNKALGAPIEKTISKAKGQPREPQVCTLPPSRDELTKNQVSLSCAVKGFYPSDIAVEWESNGQPENNYKTTPPVLDSDGSFFLVSKLTVDKSRWQQGNVFSCSVMHEALHNHYTQKSLSLSPGK
light: B1 light
notes: Positive control; monovalent CD19 (2B11) targeted 4-1BB ligand (71-248) trimer-containing Fc (kih) fusion with CH-CL crossover and charged residues; also called CD19-4-1BBL Ab

binding result (human 4-1BB (CD137) [2]): binds
B3: CD19 (2B11)-4-1BB ligand (71-248) contorsbody P1AA1233 (Fc fusion)
chain 1: REGPELSPDDPAGLLDLRQGMFAQLVAQNVLLIDGPLSWYSDPGLAGVSLTGGLSYKEDTKELVVAKAGVYYVFFQLELRRVVAGEGSGSVSLALHLQPLRSAAGAAALALTVDLPPASSEARNSAFGFQGRLLHLSAGQRLGVHLHTEARARHAWQLTQGATVLGLFRVTPEIPAGLGGGGSGGGGSDKTHTCPPCPAPEAAGGPSVFLFPPKPKDTLMISRTPEVTCVVVDVSHEDPEVKFNWYVDGVEVHNAKTKPREEQYNSTYRVVSVLTVLHQDWLNGKEYKCKVSNKALGAPIEKTISKAKGQPREPQVCTLPPSRDELTKNQVSLSCAVKGFYPSDIAVEWESNGQPENNYKTTPPVLDSDGSFFLVSKLTVDKSRWQQGNVFSCSVMHEALHNHYTQKSLSLSPGGGGGSGGGGSREGPELSPDDPAGLLDLRQGMFAQLVAQNVLLIDGPLSWYSDPGLAGVSLTGGLSYKEDTKELVVAKAGVYYVFFQLELRRVVAGEGSGSVSLALHLQPLRSAAGAAALALTVDLPPASSEARNSAFGFQGRLLHLSAGQRLGVHLHTEARARHAWQLTQGATVLGLFRVTPEIPAGL
chain 2: QVQLVQSGAEVKKPGASVKVSCKASGYTFTDYIMHWVRQAPGQGLEWMGYINPYNDGSKYTEKFQGRVTMTSDTSISTAYMELSRLRSDDTAVYYCARGTYYYGPQLFDYWGQGTTVTVSSASTKGPSVFPLAPSSKSTSGGTAALGCLVKDYFPEPVTVSWNSGALTSGVHTFPAVLQSSGLYSLSSVVTVPSSSLGTQTYICNVNHKPSNTKVDKKV[omitted - human IgG1 Fc with changes]GGGGSGGGGSREGPELSPDDPAGLLDLRQGMFAQLVAQNVLLIDGPLSWYSDPGLAGVSLTGGLSYKEDTKELVVAKAGVYYVFFQLELRRVVAGEGSGSVSLALHLQPLRSAAGAAALALTVDLPPASSEARNSAFGFQGRLLHLSAGQRLGVHLHTEARARHAWQLTQGATVLGLFRVTPEIPAGL
light: B1 light
notes: Human IgG1 Fc knob-into-hole with P329G, L234A, L235A; also called CD19-4-1BBL contorsbody P1AA1233
